“And” between values parts separate entries of the source, which are not always exact repeats. Equal entries are not always repeated. In all, about 420,000 compounds went through this assay and about 50,000 (12%) were called active. The shares of active, inactive and inconclusive entries below differ from those in the screen. The call rests on the fitted dose curve; in most records, active means well fitted inhibition curve with a large enough effect; inconclusive means small, poorly fitted or top-dose-only effect; inactive means flat fitted curve, though single readings scatter. Where the call is inconclusive, the potency comes from a doubtful curve fit.
Assay: qHTS for Inhibitors of human tyrosyl-DNA phosphodiesterase 1 (TDP1): qHTS in cells in presence of CPT; further: nearly all actives have a fitted effect of over 55% in size
Conditions: chicken DT40 Tdp1-/-;hTDP1 cells + 20 nM CPT, ATP luminescence, 48 h; activity change, negative = growth inhibition: at 46.2 µM (top of the series)
Outline: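 Chicken DT40 Tdp1-/- cells complemented with human TDP1, 400 cells/well, exposed to compounds plus 20 nM camptothecin for at least 48 h at 37 C; viability read as ATP content by CellTiter-Glo luminescence.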
On the % scale 0 is the no-effect control and ±100 the full control effect; potency means the concentration at half of the fitted maximal effect; tags describe the fitted curve by direction and shape.

| SMILES | activity change, negative = growth inhibition | Potency |
| --- | --- | --- |
| CC(=O)NC(CC(=O)OC(C)C(=O)Nc1ncc(Cl)cc1Cl)c1ccccc1 (stereo unspecified) | inactive: 18.5% | – |
| COc1ccc(Nc2cnn(-c3nc4ccccc4s3)c(=O)c2Cl)cc1 | – | active: 2.06 µM |
| COc1ccc(Cl)cc1NC(=O)CN(C)C(=O)c1ccc(COc2ccccc2)cc1 | – | inconclusive: 16.4 µM [inhibitor, single point] |
| COc1cc(SC)ccc1C(=O)OCC(=O)N1CCN(C(C)=O)CC1 | inactive: -16.5% | – |
| Cc1nn(-c2ccccc2)c(C)c1C(=O)OC(C)C(=O)NC1CCCCC1 (stereo unspecified) | – | active: 16.4 µM |
| Cc1ccc(S(=O)(=O)C2(C(=O)NCc3ccc4c(c3)OCO4)CC2)cc1 | – | inconclusive: 25.9 µM [inhibitor, single point] |
| O=C(NCc1ccc(F)cc1)c1ccc(Cn2c(SCc3ccc(F)cc3)nc3cccnc32)cc1 | – | inconclusive: 29.1 µM [inhibitor, single point] |
| COc1ccc(C(C(=O)NC2CCCCC2)n2c(=O)c(-c3cc4ccccc4[nH]3)nc3ccccc32)cc1 (stereo unspecified) | – | inconclusive: 29.1 µM [inhibitor, single point] |
| C[C@@H]1CCCCO[C@@H](CN(C)C(=O)Cc2ccccc2)[C@@H](C)CN([C@H](C)CO)C(=O)c2cc(N(C)C)ccc2O1 | inactive: -12.4% | – |
| O=C(CNC(=O)Cc1ccccc1)N=Nc1c(O)n(Cc2ccc3c(c2)OCO3)c2ccccc12 | – | inconclusive: 29.1 µM [inhibitor, single point] |
| CC(=O)c1cccc(-c2ccnc3c2CC(C(=O)Nc2cccc(Oc4ccccc4)c2)O3)c1 (stereo unspecified) | – | inconclusive: 18.4 µM [inhibitor, single point] |
| COc1ccc(NC(=O)CN(C)CC(=O)NCCc2ccc(F)cc2)cc1 | inactive: -0.901% | – |
| COc1ccc(-c2nnc(SCc3cccc(C#N)c3)o2)cc1 | – | inconclusive: 25.9 µM [inhibitor, single point] |
| O=C(NCC1CCCO1)c1ccc(Br)c(S(=O)(=O)N2CCOCC2)c1 (stereo unspecified) | inactive: 0.973% | – |
| COc1ccc(Cl)cc1NC(=O)C(=O)N/N=C/c1cc(C)n(-c2ccc(C)cc2)c1C | – | inconclusive: 29.1 µM [inhibitor, single point] |
| Cc1cc(C)cc(-n2c(C)nc3cc(C(=O)NCc4ccc(F)cc4)ccc32)c1 | – | inconclusive: 16.4 µM [inhibitor, single point] |
| O=C(Nc1ccc(Br)cc1)c1cc(-c2ccncc2)nc2ccccc12 | – | inconclusive: 20.6 µM [inhibitor, single point] |
| CN(c1cccc(NC(=O)CN(c2ccc(Cl)c(Cl)c2)S(=O)(=O)c2ccccc2)c1)S(C)(=O)=O | – | inconclusive: 20.6 µM [inhibitor, single point] |
| O=C(O)CCN1C(=O)/C(=C\c2ccc(OCc3ccccc3)c(OCc3ccccc3)c2)SC1=S | – | inconclusive: 20.6 µM [inhibitor, single point] |
| Cn1nnc2c(NCc3ccccc3)ncnc21 | inactive: 2.02% | – |
| COc1ccc2cc(C3CC=C(COC(C)=O)CN3S(=O)(=O)c3ccccc3[N+](=O)[O-])n(C(=O)OC(C)(C)C)c2c1 (stereo unspecified) | – | inconclusive: 14.6 µM [inhibitor, partial curve, poor fit] |
| Cc1cc(C)cc(NC(=O)CSc2nc3ccccc3nc2N2CCCCC2)c1 | – | inconclusive: 29.1 µM [inhibitor, single point] |

| SMILES | activity change, negative = growth inhibition | Potency |
| --- | --- | --- |
| CCOc1ccc(S(=O)(=O)N2CCCC(C(=O)N3CCC(C(N)=O)CC3)C2)cc1Cl (stereo unspecified) | – | inconclusive: 5.8 µM [inhibitor, partial curve] |
| CCN(CC(=O)Nc1ccccc1C(F)(F)F)C(=O)c1cc(S(=O)(=O)N2CCCCCC2)ccc1OC | – | inconclusive: 23.1 µM [inhibitor, single point] |
| O=c1c2ccccc2oc2ccc(-c3ccc4[nH]ccc4c3)cc12 | – | inconclusive: 29.1 µM [inhibitor, single point] |
| O=C(Cc1ccccc1)NCC(=O)N1CCN(Cc2cccc(Cl)c2)CC1 | – | inconclusive: 18.4 µM [inhibitor, single point] |
| CCOc1ccc(CCNC(=O)c2cn(-c3cccc(OC)c3)c(=O)c3ccccc23)cc1 | – | inconclusive: 16.4 µM [inhibitor, single point] |
| O=C(CCC(=O)N1CCSc2ccccc21)NCc1ccccc1Cl | – | active: 10.3 µM |
| O=C(c1ccncc1)N(c1ccc2oc3c(c2c1)CCCC3)S(=O)(=O)c1ccc(F)cc1 | – | inconclusive: 18.4 µM [inhibitor, single point] |
| Cc1cc(C)cc(NC(=O)c2cnn(-c3ccc(C)c(C)c3)c2C2CCNCC2)c1 | – | inconclusive: 29.1 µM [inhibitor, single point] |
| CCC(=O)Nc1ccc(S(=O)(=O)Nc2cc(C)on2)cc1 | inactive: -12.1% | – |
| Cn1c(=O)oc2cc(S(=O)(=O)NCCC(=O)NCc3ccc(F)cc3)ccc21 | – | inactive |
| CCc1ccc(S(=O)(=O)Nc2ccc(-c3ccc4nncn4n3)cc2)s1 | – | inconclusive: 29.1 µM [inhibitor, single point] |
| COc1ccc(C(C(=O)NC(C)(C)C)n2c(=O)c(-c3cc4ccccc4[nH]3)nc3ccccc32)cc1 (stereo unspecified) | – | inconclusive: 29.1 µM [inhibitor, single point] |
| Nc1c(C(=O)N2CCCC2)sc2nc(-c3ccccc3)ccc12 | inactive: -9.91% | – |
| O=C(Cn1c(-c2ccccn2)nc2ccccc21)N/N=C/c1ccccn1 | – | inconclusive: 25.9 µM [inhibitor, single point] |
| FC(F)(F)c1nc2nc(Cl)c(Cl)nc2n1CCCN1CCOCC1 | inactive: -13.9% | – |
| O=C(NCc1ccccc1)c1csc(-c2cccnc2)n1 | – | inconclusive: 18.4 µM [inhibitor, single point] |
| COc1ccc(S(=O)(=O)N2CCCCC2)cc1NC(=S)Nc1cccc(Cl)c1C | – | inconclusive: 16.4 µM [inhibitor, partial curve] |
| Cc1cc(O)c2c(CN3CCN(Cc4ccccc4)CC3)cc(=O)oc2c1 | – | inconclusive: 25.9 µM [inhibitor, single point] |
| COc1ccccc1CN1CCN(C(=O)c2ccco2)CC1 | inactive: 5.11% | – |
| CC1=C(C(=O)N2CCCCCC2)CC(CC(=O)NCCc2ccccn2)C(=O)N1CCC1=CCCCC1 (stereo unspecified) | – | inconclusive: 33.2 µM [inhibitor, single point] |
| Cc1ccc(S(=O)(=O)N2CCN(C(=O)COC(=O)/C=C/c3ccc(Cl)cc3)CC2)c(C)c1 | – | inconclusive: 18.4 µM [inhibitor, single point] |
| COc1ccc(C)cc1NC(=O)c1cc(-c2ccccc2)nc2c1cnn2C(C)C | – | inconclusive: 29.1 µM [inhibitor, single point] |

| SMILES | activity change, negative = growth inhibition | Potency |
| --- | --- | --- |
| C=CCNCC(=O)Nc1sc2c(c1C(=O)Nc1ccc(OC)cc1OC)CCC2 | – | inconclusive: 16.4 µM [inhibitor, single point] |
| COC(=O)c1cccc(NC2CC(=O)N(c3ccc(OC)c(OC)c3)C2=O)c1 (stereo unspecified) | inactive: 22.6% | – |
| Nc1c(S(=O)(=O)c2cccc(Cl)c2)c2nc3ccccc3nc2n1CCN1CCOCC1 | – | inconclusive: 18.4 µM [inhibitor, single point] |
| Cc1ccc(C(C)C)c(OCCCn2c(=O)oc3ccccc32)c1 | – | inconclusive: 23.1 µM [inhibitor, single point] |
| COc1cc2c(cc1OC)C(C)N(C(=O)Nc1ccccc1)CC2 (stereo unspecified) | – | active: 3.66 µM |
| Cc1cc(NC(=O)CC2CCCC2)n(-c2nc3ccccc3[nH]2)n1 | – | inconclusive: 25.9 µM [inhibitor, single point] |
| Cc1cccc(CNc2ccnc(-c3cccnc3)n2)c1 | – | inconclusive: 25.9 µM [inhibitor, single point] |
| CC(=O)CSc1nc2c(c(=O)[nH]c(=O)n2C)n1Cc1ccccc1Cl | – | inconclusive: 25.9 µM [inhibitor, single point] |
| O=C(CSc1nnc(CCc2ccccc2)n1-c1ccc(Cl)cc1)NCc1ccccc1 | – | active: 16.4 µM |
| CC(CNS(=O)(=O)c1ccc2c(c1)CC(=O)N2C)c1ccccc1 (stereo unspecified) | – | inactive and inconclusive: 29.1 µM [inhibitor, single point] |
| CC(C)(C)OC(=O)NCCCC[C@H](NC(=O)c1nc[nH]c1C(=O)NCc1ccccc1)C(=O)OC(C)(C)C | – | inconclusive: 29.1 µM [inhibitor, single point] |
| COc1ccccc1NC(=O)c1ccc2oc(=O)c(S(=O)(=O)c3ccccc3)cc2c1 | inactive: -4.36% | – |
| O=C(CCOc1ccccc1)Nc1ccnn1C1CCN(Cc2ccc(O)cc2)CC1 | inactive: -1.25% | – |
| COc1cc(C(C)=O)ccc1OCCCN1CCC(Cc2ccccc2)CC1 | – | inconclusive: 18.4 µM [inhibitor, single point] |
| C#CCNC(=O)C1=C[C@@H](c2ccc(Br)cc2)C[C@@H](OCc2ccc(CO)cc2)O1 | – | inconclusive: 18.4 µM [inhibitor, single point] |
| CCC(C)[C@H](NC(=O)Nc1ccccc1F)C(=O)OC (stereo partly specified) | inactive: 6.92% | – |
| CN(C#N)c1nc(Cl)nc(Nc2cccc(Cl)c2)n1 | – | inconclusive: 23.1 µM [inhibitor, single point] |
| Cc1cc(NS(=O)(=O)c2ccc(NS(=O)(=O)c3ccc(CC(C)C)cc3)cc2)nc(C)n1 | – | inconclusive: 32.6 µM [inhibitor, partial curve, poor fit] |
| Cc1cccc(C)c1OCc1cc(C(=O)N(Cc2nccn2C)C(C)C)no1 | – | active: 14.6 µM |
| CCOc1ccccc1NC(=S)Nc1ncccc1C | – | inconclusive: 25.9 µM [inhibitor, single point] |
| CCc1nnc(NC(=O)C2CCCN2S(=O)(=O)c2ccccc2)s1 (stereo unspecified) | inactive: -10.1% | – |
| N#CC1=C2SCN(Cc3ccco3)CN2C(=O)CC1c1ccc(Cl)cc1 (stereo unspecified) | inactive: -15.7% | – |

Source: PubChem BioAssay AID686979 (National Center for Advancing Translational Sciences (NCATS), 2013)
